From US8470805B2, “Processes for preparing piperazinium salts of KMUP and use thereof” (Kaohsiung Medical University, priority 2009, dated 2013)

System: matrix metalloprotease-9 (MMP-9)
[1] = aerosol 5 mM/30 mins/day, day 21 to 27, OVA, N=6

KMUP-1-Cromolyn mono-sodium complex
Inhibition (%) of MMP-9 in lung tissues [1]: 60 ± 4.4%

CC(C)(O)c1ccccc1CCC(SCC1(CC(=O)O)CC1)c1cccc(/C=C/c2ccc3ccc(Cl)cc3n2)c1.Cn1c(=O)c2c(ncn2CCN2CCN(c3ccccc3Cl)CC2)n(C)c1=O (stereo not drawn) [KMUP-1-Montelukast, KMUP-1-montelukast complex]
Inhibition (%) of MMP-9 in lung tissues [1]: 70 ± 5.2%

Cl.Cn1c(=O)c2c(ncn2CCN2CCN(c3ccccc3Cl)CC2)n(C)c1=O [KMUP-1 HCl salt, 7-[2-[4-(2-chlorobenzene)piperazinyl]ethyl]-1,3-dimethyl xanthine HCl]
Inhibition (%) of MMP-9 in lung tissues (mouse, in vivo): 55 ± 3.5%

Like-named read-outs stand apart in the source and are kept apart here.
